Laboratory results as given in the supplement of paper PMC3334620.
Over roughly 33,000 sequences, “E-score (-0.5 to 0.5)” has its median near -0.056; the highest 2% begin near 0.38. The list shows a part of the results.

biological target: Stb4 (UniProt P50104); test: PBM E-score (8-mer binding enrichment) (E-score (-0.5 to 0.5)); higher = stronger / more preferred TF binding; most listed sequences are background and not binding sites; conditions: protein concentration: 200 nM; construct: GST-DNA-binding domain
Method in brief: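 Masliner-normalised scans of fluorescent anti-GST signal were the basis for scoring. That signal came from GST-tagged yeast transcription factors applied at about 100-200 nM to double-stranded universal all-10-mer Agilent arrays on fresh or once-stripped slides. Each ungapped eight-base word, pooled with its reverse complement, received an E-score from the Universal PBM Analysis Suite.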

Sequence	PBM E-score
ACGAGAGC	-0.151
TCGGACCA	0.355
CTATGACC	-0.0232
GCGAGATA	0.026
AACTATCG	-0.12
GACTAGGA	-0.19
AGTTACTA	-0.103
CGATCAAG	0.04
GAGCAACA	-0.123
CTGGCCTA	-0.229
AGTTCTTC	0.00647
ATCTTTTG	-0.0934
ACTACACG	-0.0459
CGCTTCAA	-0.112
GCGCTTTA	0.00826
CCTTTCGA	-0.172
AAGTTGCC	0.171
ATGGCCCG	0.2
AAGGCTCA	-0.253
ACATCATG	-0.001
TACTCTAA	-0.18
AGGGGTCA	-0.178

Sequence	PBM E-score
CATTCGTA	-0.194
GCTGACAC	-0.143
CAGGCGAA	-0.287
AGCGGGGG	-0.331
AATAGTAA	-0.116
GCGATAAA	-0.212
CGGCGAGC	0.149
ACTGGGAG	-0.214
AGAGCCCT	-0.208
TGACGGAA	0.312
CGAAGACA	0.168
AGGCACTG	-0.0638
CCTGCAAG	-0.21
CCACTGGC	-0.124
GCAAATTA	0.0267
AACGCGCT	0.13
AAGACTAA	-0.0727
AATGTGAG	-0.167
GTTTAAAA	-0.143
ATGTCACA	-0.146
TGATGGAA	-0.168
AGAATGCG	0.0888

Sequence	PBM E-score
AGCAGCCG	0.265
ATCTCGCA	-0.035
TCAGCCAA	-0.303
ATGTTGGC	-0.0363
AAGTGACC	-0.0401
CGAAGGCA	-0.0272
CGCGTCAC	-0.159
CTCTTGGC	-0.174
CCTTTGAC	-0.132
GAAGCTGC	0.028
CCAACTTA	-0.00182
ATTTCAGG	-0.0247
GCCATTGA	-0.124
CTGGCTTC	-0.0784
ACGAAAAC	0.154
CTATCGTC	-0.181
ATCCCAAC	-0.231
CAAAACTG	-0.174
AAGCGGCT	0.214
AAAGTCGT	-0.224
TATGGGGA	-0.0707
AAGGACGT	-0.217

Sequence	PBM E-score
ACATGCCG	0.225
ATCATAGA	-0.0669
TAGCGCTA	-0.0622
ATCGGTAC	0.329
CGACTGCC	0.0244
ATTAAACG	-0.0245
GACCTTCA	-0.109
ACAGCTCG	0.13
CTAGTAAA	0.00315
ACAGGCGA	-0.125
GATGTATA	-0.0148
ACTACTCC	0.171
TCCTGGAA	-0.154
CCCACACC	-0.0519
GGTGTTCA	-0.00913
AGGTGACC	-0.247
AGCAGCAT	-0.179
CGAGCTGA	0.195
AATCGAGC	-0.107
CTGACGGA	0.139
ACACCAAG	-0.0984
CCAAGGGA	-0.271

Sequence	PBM E-score
CCGCGTAC	0.129
AACTTCTG	-0.0541
ACCGACGC	0.167
CCTTCACA	-0.247
CACGGCGA	-0.125
CGCACTGA	-0.0372
ACAGGACA	-0.0558
ACCCGCCG	0.338
GCTAAGGA	-0.0617
CGACAGCG	0.189
TACGAATA	-0.153
AGTATCGA	-0.072
ACACCCAA	-0.00959
GGACACTA	-0.0191
AGGCATTG	0.029
ACTTTTGC	-0.212
GTACCTAC	-0.172
ACCTGTTA	-0.184
CTCACCGA	0.143
AGACTAGC	-0.334
CTAGCGTA	-0.0278
AAGTTGCT	-0.0668
